This passage reports self-cleavage results from the RNAGym collection of RNA variant scans (doi:10.1093/nar/gkz1192).

B1: CPEB3 Ribozyme (parent)
chain: UAACAGGGGGCCACAGCAGAAGCGUUCACGUCGCAGCCCCUGUCAGAUUCUGGUGAAUCUGCGAAUUCUGCUGUAUAUCUC

The source gives no read counts; variants with many changes may rest on few reads.

Variants of B1 are the subject of this data set. As to the kind of experiment: self-cleavage, relative activity (ratio to wild type); higher = more cleavage; in vitro, sequencing. The procedure, abridged: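 For each CPEB3 ribozyme variant, relative activity is its cleaved/total read fraction divided by the unmutated ribozyme's. Barcoded error-prone PCR libraries were transcribed by T7 RNA polymerase (5 hours, 37°C) and held in DNase I for 15 min before an EDTA stop, with cleavage occurring throughout. Template-switching reverse transcription and Illumina sequencing were used to read the RNAs. A 5-read minimum applied, and results are the mean of three batches.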
On to C14A A15G U31G A35G C62U, for which the self-cleavage worked out at 0.38. As to C14U C23A U26C U51C, the self-cleavage turned out to be 0.08. As for A13U U43C A64G, the self-cleavage came to 0.34. As for C14G A15U U26C, the figure is 0.29. As for A13U U67A U69C, the figure is 0.25. As for C14A C17U U49C G53U A57G A64C, the figure is 0.1; as for C14U C32A A35U, 0.11. For the variant C14U A47U U58A A64G, the self-cleavage is 1.11. As for C14U U31A A56G, the self-cleavage is 0.63.

As for C14A A20G U26C A45G A56U U66A, the self-cleavage is 0. The result for C14G A56U U69A reads 0.21. As for A13U U41C U60C U69A, the figure is 0.26; as for A13U U43C A65G U78A, 0.12; as for C14U G16A U41C U48C, 0.19. The result for A13U U41A U48A reads 0.2. For C14A G19A U60A A65G U76A U80G, the self-cleavage came out at 0.02. Take A13U U60C U78A: the self-cleavage worked out at 0.98. The result for C14U U41G A57G U80C reads 0.18; that for A13U U67C U72C, 0.23; that for C14A A15U A21G C44A A56G U66C C71U, 0.05.

C14G U25C U51C U66C: the self-cleavage was 0.16.

For the variant A13U U41C A75G A77U, the self-cleavage came to 1.2. As for C14U U43C U72C A77G, the figure is 0.92; as for A13U U43A A45G, 0.95; as for C14A A45G A64G U69A U80C, 0.21. As to A13U U41A A57G U72C, the self-cleavage stood at 0.23.

C14U C17U A56G: the self-cleavage is 0.63.

As to C14A U25C A64U C68A, the self-cleavage was 0.16. The result for A13U U41C A65G reads 0.81; that for C14U A18G A57C C71U, 0.17; that for A13U U54A U80C, 1.13. As for C14A U26C A57G, the figure is 0.68.

On to C14A C32U G42A U74C A77G, for which the self-cleavage came out at 0.04.

As for A13U U43C U58A, the self-cleavage came to 0.13. In the case of A13U U54A A57G, the self-cleavage came to 1.22.

C14G G42U U51C: the self-cleavage amounted to 0.14. As for C14U U31A A45G U69C, the self-cleavage amounted to 0.27. As for C14U U25C U72C, the figure is 0.22; as for C14U U41A U51A, 0.36; as for C14A A15G U25C U60C, 0.22. For A13U U31G A47G U49A, the self-cleavage came out at 0.19. The result for A13U U54G U69C reads 0.26.

Take A13U U49A U78C: the self-cleavage was determined as 0.85. The result for C14A A18G U49C A64G G73A reads 0.2; that for C14A G33A U49G U69C A75G U78C, 0.06; that for A13U U49C U54A U60C, 0.18.

With A13U U41A U66C U76G, the self-cleavage came to 0.1. The result for C14U A15U A18U A20G U26A A56G reads 0.09. As for C14G A21G A45U, the self-cleavage is 0.21. In the case of C14U A28G A45G U78C C79A, the self-cleavage came out at 0.62. As to C14A U41C U80A, the self-cleavage stood at 1.19. As for C14A U25C U48A A57G, the figure is 0.15. For A13U U31A U49A U66G, the self-cleavage amounted to 0.08. As for C14U U26C U54A U69C, the figure is 0.1. The result for C14A A21G A28G A35G U41C U58C reads 0.26. In the case of A13U U76C A77U, the self-cleavage was 1.12. The result for C14U C38U U54C A64G reads 0.84; that for A13U U43A A64U U67C, 0.26. The result for C14U C34A C39A U60C reads 0.14; that for C14A A28U U54A, 1.01; that for C14U U51A U60C C62U U78C, 0.42. The result for C14U U49C U72C reads 0.37; that for C14U G30A U69A U80C, 0.06; that for A13U U31C U51C, 0.72. For C14A U43C U60A U69A, the self-cleavage was 0.23. As for C14U A20G U41G U49C A65U U74A, the figure is 0.14. The result for C14U C34G A56G A65G reads 0.21. As for C14A A28U C50U, the self-cleavage is 0.86. The result for A13U U51C U80C reads 1.26; that for C14G U43C A47G A64U, 0.12. As for A13U U58G A77U, the figure is 0.39; as for A13U U31C C32U U54C C81U, 0. As for C14A C23A U43A U48C A65G, the figure is 0.09. In the case of C14A U60C U67C U72C, the self-cleavage worked out at 0.16. As for A13U U41A U43A U67G C81U, the figure is 0.12; as for A13U U58C U76C, 0.78. The result for C14U U31A U43C A45U U80C reads 0.14; that for C14U A15G U41C U48C, 0.96.

In the case of C14A A18U A45G, the self-cleavage turned out to be 0.33. The result for C14U U26C U51A A64G reads 0.55; that for C14G A21G U69G U76A, 0.29; that for C14A U25A U43C U60A, 0.12.

Consider C14G A21U A35G, for which the self-cleavage was 1.18. Regarding A13U U31C C32A U78C, the self-cleavage was determined as 0.17. As for A13U U41A U58C C62U, the figure is 0.31; as for C14A A28G A35U A57G U72C U80C, 0.38.

Turning to C14G A15U U76C, the self-cleavage amounted to 0.16.

Consider C14U U49C U69A U74C, for which the self-cleavage was 0.36. A13U U72C U76C C81U: the self-cleavage was found to be 1.19. As for A13U U43G A47G, the figure is 0.22; as for A13U U31C U43C U51A A77U, 0.71; as for C14U A45C U78C, 0.67.

As for A13U U54C U67C, the self-cleavage came out at 0.25. In the case of A13U U69C G70A, the self-cleavage came to 0.21.

Turning to A13U U41A U48C U80C, the self-cleavage worked out at 0.07. For the variant C14A U26C U80C, the self-cleavage amounted to 0.94.

For C14U C40A U41C U51C, the self-cleavage turned out to be 0.2. As for C14A A15U C38U U54C G55A A65G, the figure is 0.05; as for C14U U26C A56G U69A U80C, 0.25; as for C14U A28U G63A U67C, 0.17. For the variant C14U U25A A35U C71A, the self-cleavage came to 0.06. The result for C14A U26A A64C U69A reads 0.29; that for C14U A28U U49C U67G U72A, 0.08. As for C14G U41A U43G, the self-cleavage is 0.07. The result for A13U U58A G73U U80C reads 1.1. As for C14A A20C U54A U76C, the figure is 0.41. As for C14U U41C U69C C71U, the figure is 0.4; as for C14U A20G C27U A56G U67C, 0.07; as for C14A A20C C44A, 0.43.

C14A C17U U26C: the self-cleavage was found to be 0.37. Consider C14U U26C G42A U78C, for which the self-cleavage is 0.15. With C14A U49C G70U U78C, the self-cleavage turned out to be 0.11. Take A13U U43C G53C U54C A56G A75G: the self-cleavage was 0.76. Take A13U U31C A75U: the self-cleavage came to 0.68.

On to C14U U41A U78C, for which the self-cleavage came out at 0.16. As for A13U U41A U54C A64G U78C, the figure is 0.14.

For C14A U25C U72A U74C U80A, the self-cleavage is 0.06.

Consider C14U A21G C50G U54C, for which the self-cleavage was 0.12. For the variant C14A U51C U58C U66C U76C, the self-cleavage amounted to 0.24.

With C14U A28U U43A, the self-cleavage was 1.09. The result for C14U A18U U26A U76C reads 0.24.

For A13U U58C U78C, the self-cleavage is 0.44. As for C14U A20G A45G U54C U67C, the figure is 0.96; as for A13U U51C U54C U60C, 0.45; as for A13U U49C A64U, 0.11. With C14U U54A U78C U80C, the self-cleavage worked out at 1.13. As for C14A U25C A28G U74C U80A, the self-cleavage amounted to 0.15.

A13U U43C U51C C71U: the self-cleavage was found to be 0.18. The result for A13U U31A U49A U78A reads 0.41; that for C14U G19A A21G, 0.4; that for C14U U43A A56G, 1.12.

On to C14G U25C A56U U78C, for which the self-cleavage came out at 0.05. As for C14U A57G A77G, the figure is 1.1. The result for A13U U49C A64G A75G reads 0.19. The result for A13U U48C U80C reads 0.98; that for A13U U49C U51A U67C U76C, 0.3. Take A13U U41A U54A U67C: the self-cleavage worked out at 0.11. As for C14U A20G A35G U48A C62U A65G, the figure is 0.08; as for C14U U41A A47G U78C U80C, 0.41; as for C14U A35G U41C A64G, 1.3.

As to C14G A21G G24C U26C U43C, the self-cleavage was found to be 0.07.

Turning to A13U U48C U54C, the self-cleavage amounted to 0.67. Take A13U U41C A56G: the self-cleavage is 1.02. The result for C14U A15G A28U U41C A57U reads 0.15; that for C14U A35G U76C, 1.26. For the variant C14U U54A A56G A57C U69A, the self-cleavage is 0.17. The result for A13U U43C A57U reads 0.17; that for A13U U43C A57G, 0.34; that for C14U U54C A64U U67A, 0.29.

With C14U A28G A47G U76A, the self-cleavage stood at 0.93. As for A13U U31A U51A A57U, the figure is 0.12; as for C14A U25C C27A, 0.15; as for A13U U48C C71A, 0.11. The result for A13U U43A C59G U66C reads 0.18; that for A13U U54A A75G, 1.25. Take C14G A18G U60C: the self-cleavage worked out at 0.53.

As for A13U U31C A45G A77G, the self-cleavage is 0.81. For the variant C14U U25C U43A A57G, the self-cleavage stood at 0.14.

For A13U U31G A35U A47G U51A U67C U72C, the self-cleavage amounted to 0.12.

Turning to C14A C17A C32U, the self-cleavage worked out at 0.31. The result for C14U U51A U78A reads 1.03. On to C14A A35U A56G A64U U78C, for which the self-cleavage worked out at 0.11. The result for C14U C40U G70A U72G reads 0.17.

For the variant C14U A56G A65U U67C U80C, the self-cleavage is 0.18. The result for A13U U41C U43C U48C A65G reads 0.11. The result for C14U A20G U26C U58A U69C reads 0.14; that for A13U U41C U54C U72A, 0.47.
